{"source": "a collection of fitness landscapes (doi:10.1126/science.1257360)", "parents": {"B1": {"name": "PhoQ; a variant is named by its letters at X, in order, P23837 (parent)", "chain": "MKKLLRLFFPLSLRVRFLLATAAVVLVLSLAYGMVALIGYSVSFDKTTFRLLRGESNLFYTLAKWENNKLHVELPENIDKQSPTMTLIYDENGQLLWAQRDVPWLMKMIQPDWLKSNGFHEIEADVNDTSLLLSGDHSIQQQLQEVREDDDDAEMTHSVAVNVYPATSRMPKLTIVVVDTIPVELKSSYMVWSWFIYVLSANLLLVIPLLWVAAWWSLRPIEALAKEVRELEEHNRELLNPATTRELTSLVRNLNRLLKSERERYDKYRTTLTDLTHSLKTPLXXLQXXLRSLRSEKMSVSDAEPVMLEQISRISQQIGYYLHRASMRGGTLLSRELHPVAPLLDNLTSALNKVYQRKGVNISLDISPEISFVGEQNDFVEVMGNVLDNACKYCLEFVEISARQTDEHLYIVVEDDGPGIPLSKREVIFDRGQRVDTLRPGQGVGLAVAREITEQYEGKIVAGESMLGGARMEVIFGRQHSAPKDE"}}, "note": "Some of the results follow.", "data": [{"variants_of": "B1", "assay": "enrichment ratio after two sorts for PhoP signalling (ratio (wild type AVST 3.29)); higher = more functional", "conditions": "with PhoP (E. coli)", "values": [{"variant": "VMAP", "enrichment ratio": "≤ 0.25"}, {"variant": "ADDP", "enrichment ratio": "≤ 0.25"}, {"variant": "HCDW", "enrichment ratio": "≤ 0.25"}, {"variant": "SYRC", "enrichment ratio": "≤ 0.25"}, {"variant": "AHWK", "enrichment ratio": "≤ 0.25"}, {"variant": "SYMV", "enrichment ratio": 0.557}, {"variant": "GEAT", "enrichment ratio": 14.1}, {"variant": "YHCL", "enrichment ratio": "≤ 0.25"}, {"variant": "LFRR", "enrichment ratio": "≤ 0.25"}, {"variant": "FDRA", "enrichment ratio": "≤ 0.25"}, {"variant": "FHQQ", "enrichment ratio": "≤ 0.25"}, {"variant": "AFPI", "enrichment ratio": "≤ 0.25"}, {"variant": "FACK", "enrichment ratio": "≤ 0.25"}, {"variant": "FGGR", "enrichment ratio": "≤ 0.25"}, {"variant": "MHQN", "enrichment ratio": "≤ 0.25"}, {"variant": "FKPG", "enrichment ratio": "≤ 0.25"}, {"variant": "ISPA", "enrichment ratio": "≤ 0.25"}, {"variant": "EGYE", "enrichment ratio": "≤ 0.25"}, {"variant": "PEGL", "enrichment ratio": "≤ 0.25"}, {"variant": "LFQL", "enrichment ratio": "≤ 0.25"}, {"variant": "YQAK", "enrichment ratio": "≤ 0.25"}, {"variant": "GRKR", "enrichment ratio": "≤ 0.25"}, {"variant": "YNCW", "enrichment ratio": "≤ 0.25"}, {"variant": "RETT", "enrichment ratio": "≤ 0.25"}, {"variant": "LANF", "enrichment ratio": "≤ 0.25"}, {"variant": "FYLF", "enrichment ratio": "≤ 0.25"}, {"variant": "VHRL", "enrichment ratio": 0.637}, {"variant": "TCQA", "enrichment ratio": 16.2}, {"variant": "WWLY", "enrichment ratio": "≤ 0.25"}, {"variant": "IRQT", "enrichment ratio": "≤ 0.25"}, {"variant": "VICY", "enrichment ratio": "≤ 0.25"}, {"variant": "TLRM", "enrichment ratio": "≤ 0.25"}, {"variant": "APIV", "enrichment ratio": "≤ 0.25"}, {"variant": "QRID", "enrichment ratio": "≤ 0.25"}, {"variant": "FTQS", "enrichment ratio": "≤ 0.25"}, {"variant": "HADQ", "enrichment ratio": "≤ 0.25"}, {"variant": "EQGY", "enrichment ratio": "≤ 0.25"}, {"variant": "KHIG", "enrichment ratio": "≤ 0.25"}, {"variant": "KICV", "enrichment ratio": "≤ 0.25"}, {"variant": "NCAP", "enrichment ratio": "≤ 0.25"}, {"variant": "MCSY", "enrichment ratio": "≤ 0.25"}, {"variant": "NYAI", "enrichment ratio": "≤ 0.25"}, {"variant": "YLTM", "enrichment ratio": 0.267}, {"variant": "LWNF", "enrichment ratio": "≤ 0.25"}, {"variant": "DNGY", "enrichment ratio": "≤ 0.25"}, {"variant": "FYDY", "enrichment ratio": "≤ 0.25"}, {"variant": "VQPC", "enrichment ratio": "≤ 0.25"}, {"variant": "LEVF", "enrichment ratio": "≤ 0.25"}, {"variant": "WWTA", "enrichment ratio": "≤ 0.25"}, {"variant": "DDLE", "enrichment ratio": "≤ 0.25"}, {"variant": "IRKG", "enrichment ratio": "≤ 0.25"}, {"variant": "EKFE", "enrichment ratio": "≤ 0.25"}, {"variant": "VLAH", "enrichment ratio": "≤ 0.25"}, {"variant": "NEIQ", "enrichment ratio": "≤ 0.25"}, {"variant": "NLEG", "enrichment ratio": "≤ 0.25"}, {"variant": "LKYW", "enrichment ratio": "≤ 0.25"}, {"variant": "LGDE", "enrichment ratio": "≤ 0.25"}, {"variant": "GLIM", "enrichment ratio": 3.84}, {"variant": "DGTP", "enrichment ratio": "≤ 0.25"}, {"variant": "DDAH", "enrichment ratio": "≤ 0.25"}, {"variant": "RERT", "enrichment ratio": "≤ 0.25"}, {"variant": "FYQN", "enrichment ratio": "≤ 0.25"}, {"variant": "SQRC", "enrichment ratio": "≤ 0.25"}, {"variant": "GHEW", "enrichment ratio": "≤ 0.25"}, {"variant": "EDLR", "enrichment ratio": "≤ 0.25"}, {"variant": "HAMI", "enrichment ratio": "≤ 0.25"}, {"variant": "MEAA", "enrichment ratio": "≤ 0.25"}, {"variant": "GQPC", "enrichment ratio": "≤ 0.25"}, {"variant": "DMTS", "enrichment ratio": "≤ 0.25"}, {"variant": "FAMR", "enrichment ratio": "≤ 0.25"}, {"variant": "WVSR", "enrichment ratio": "≤ 0.25"}, {"variant": "FGHQ", "enrichment ratio": "≤ 0.25"}, {"variant": "NEPR", "enrichment ratio": "≤ 0.25"}, {"variant": "NKSC", "enrichment ratio": "≤ 0.25"}, {"variant": "IMGR", "enrichment ratio": "≤ 0.25"}, {"variant": "GSTC", "enrichment ratio": 0.618}, {"variant": "PQDI", "enrichment ratio": "≤ 0.25"}, {"variant": "QCDS", "enrichment ratio": "≤ 0.25"}, {"variant": "GKKV", "enrichment ratio": "≤ 0.25"}, {"variant": "DLCE", "enrichment ratio": "≤ 0.25"}, {"variant": "FWDA", "enrichment ratio": "≤ 0.25"}, {"variant": "NGQF", "enrichment ratio": "≤ 0.25"}, {"variant": "FVNY", "enrichment ratio": "≤ 0.25"}, {"variant": "RGER", "enrichment ratio": "≤ 0.25"}, {"variant": "QSAQ", "enrichment ratio": 5}, {"variant": "DKGA", "enrichment ratio": "≤ 0.25"}, {"variant": "YTRN", "enrichment ratio": "≤ 0.25"}, {"variant": "DVEL", "enrichment ratio": "≤ 0.25"}, {"variant": "MQQP", "enrichment ratio": "≤ 0.25"}, {"variant": "WWHR", "enrichment ratio": "≤ 0.25"}, {"variant": "HAIM", "enrichment ratio": "≤ 0.25"}, {"variant": "HSMA", "enrichment ratio": "≤ 0.25"}, {"variant": "WESR", "enrichment ratio": "≤ 0.25"}, {"variant": "MFTY", "enrichment ratio": "≤ 0.25"}, {"variant": "MVGW", "enrichment ratio": "≤ 0.25"}, {"variant": "KSYT", "enrichment ratio": "≤ 0.25"}, {"variant": "WFTW", "enrichment ratio": "≤ 0.25"}, {"variant": "WYLW", "enrichment ratio": "≤ 0.25"}, {"variant": "DCYT", "enrichment ratio": "≤ 0.25"}, {"variant": "WKSF", "enrichment ratio": "≤ 0.25"}, {"variant": "RHNR", "enrichment ratio": "≤ 0.25"}, {"variant": "DSKS", "enrichment ratio": 0.423}, {"variant": "SPIK", "enrichment ratio": "≤ 0.25"}, {"variant": "LSPA", "enrichment ratio": "≤ 0.25"}, {"variant": "YMEV", "enrichment ratio": "≤ 0.25"}, {"variant": "TSSI", "enrichment ratio": 19.5}, {"variant": "TAIR", "enrichment ratio": "≤ 0.25"}, {"variant": "EFFG", "enrichment ratio": "≤ 0.25"}, {"variant": "FDMS", "enrichment ratio": "≤ 0.25"}, {"variant": "MSYG", "enrichment ratio": 5.99}, {"variant": "GGHA", "enrichment ratio": "≤ 0.25"}, {"variant": "AIWA", "enrichment ratio": "≤ 0.25"}, {"variant": "KLEC", "enrichment ratio": "≤ 0.25"}, {"variant": "HWCF", "enrichment ratio": "≤ 0.25"}, {"variant": "DVNT", "enrichment ratio": "≤ 0.25"}, {"variant": "DPYL", "enrichment ratio": "≤ 0.25"}, {"variant": "FPRW", "enrichment ratio": "≤ 0.25"}, {"variant": "NNRD", "enrichment ratio": "≤ 0.25"}, {"variant": "QVSK", "enrichment ratio": 0.663}, {"variant": "LLNT", "enrichment ratio": "≤ 0.25"}, {"variant": "DTAV", "enrichment ratio": "≤ 0.25"}, {"variant": "MLYD", "enrichment ratio": "≤ 0.25"}, {"variant": "RICS", "enrichment ratio": "≤ 0.25"}, {"variant": "GYHY", "enrichment ratio": "≤ 0.25"}, {"variant": "LSPR", "enrichment ratio": "≤ 0.25"}, {"variant": "ACPA", "enrichment ratio": "≤ 0.25"}, {"variant": "QLCK", "enrichment ratio": "≤ 0.25"}, {"variant": "RHVP", "enrichment ratio": "≤ 0.25"}, {"variant": "WPHI", "enrichment ratio": "≤ 0.25"}, {"variant": "DCEW", "enrichment ratio": "≤ 0.25"}, {"variant": "RNKI", "enrichment ratio": "≤ 0.25"}, {"variant": "SATV", "enrichment ratio": 5.18}, {"variant": "RGSC", "enrichment ratio": "≤ 0.25"}, {"variant": "VSHE", "enrichment ratio": "≤ 0.25"}, {"variant": "LHGR", "enrichment ratio": "≤ 0.25"}, {"variant": "KFEL", "enrichment ratio": "≤ 0.25"}, {"variant": "VTNV", "enrichment ratio": "≤ 0.25"}, {"variant": "HQVQ", "enrichment ratio": "≤ 0.25"}, {"variant": "KYAL", "enrichment ratio": "≤ 0.25"}, {"variant": "MAKC", "enrichment ratio": "≤ 0.25"}, {"variant": "NIYK", "enrichment ratio": "≤ 0.25"}, {"variant": "KELC", "enrichment ratio": "≤ 0.25"}, {"variant": "LYTF", "enrichment ratio": "≤ 0.25"}, {"variant": "RYHK", "enrichment ratio": "≤ 0.25"}, {"variant": "HFVP", "enrichment ratio": "≤ 0.25"}, {"variant": "VRPA", "enrichment ratio": "≤ 0.25"}, {"variant": "WEVH", "enrichment ratio": "≤ 0.25"}, {"variant": "EQMY", "enrichment ratio": "≤ 0.25"}, {"variant": "ITPA", "enrichment ratio": "≤ 0.25"}, {"variant": "PLDD", "enrichment ratio": "≤ 0.25"}, {"variant": "HCCM", "enrichment ratio": "≤ 0.25"}, {"variant": "TNWY", "enrichment ratio": "≤ 0.25"}, {"variant": "FACL", "enrichment ratio": 3.63}]}]}
